# Some of the results follow.
# B1: Epa1to9 (Candida glabrata) (protein)
# chain: MGSSHHHHHHSSGLVPRGSHMTSSNDISLASKDPTTFPLGCSPDITTPKKGLSMELYSYDFRKKGSYPCWDAAYLDPNYPRTGYKSHRLLAKVDGVTGNINFYYHATKGCTPQLGHLPASYNYPKPLTMTNFTMLLYGYFRPKVTGFHTFTISADDLLFVNFGAGNAFDCCRRDSSADHFGNYQAYAIWGSKTAKDELTVHLDAGVYYPIRLFYNNRDYHGALSFTFKTESNENTVSDFSEYFFSLDDTEEGCPGLISYD
# What was measured:
# Test in all cases: glycan array binding signal (z-score within array); higher = stronger binding
# Details in all cases: glycan notation: IUPAC condensed, linker removed
# Gal(b1-3)GalNAc(b1-3)Gal = target: Gal(b1-3)GalNAc(b1-3)Gal
# How it was run: (§1)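 From the Consortium for Functional Glycomics database, 3228 arrays were curated, keeping only those whose protein sequence was available. Binding is given as a within-array Z-score averaged across arrays sharing a protein sequence and across linkers. Negative Z-scores can be read as non-binding.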
# [1] = target: Gal(b1-3)GalNAc(b1-3)Gal(a1-4)Gal(b1-4)Glc
# How it was run: as §1
# [2] = target: Gal(b1-3)GalNAc(b1-4)Gal(b1-4)Glc
# How it was run: as §1
# [3] = target: Gal(b1-3)GalNAc(b1-4)[Neu5Ac(a2-3)]Gal(b1-4)Glc
# How it was run: as §1
# Gal(b1-3)GlcNAc = target: Gal(b1-3)GlcNAc
# How it was run: as §1
# [4] = target: Gal(b1-3)GlcNAc(a1-3)Gal(b1-4)GlcNAc
# How it was run: as §1
# [5] = target: Gal(b1-3)GlcNAc(a1-6)Gal(b1-4)GlcNAc
# How it was run: as §1
# Gal(b1-3)GlcNAc(b1-2)Man = target: Gal(b1-3)GlcNAc(b1-2)Man
# How it was run: as §1
# [6] = target: Gal(b1-3)GlcNAc(b1-2)Man(a1-3)[Gal(b1-3)GlcNAc(b1-2)Man(a1-6)]Man(b1-4)GlcNAc(b1-4)GlcNAc
# How it was run: as §1
# [7] = target: Gal(b1-3)GlcNAc(b1-2)Man(a1-3)[Gal(b1-3)GlcNAc(b1-2)Man(a1-6)]Man(b1-4)GlcNAc(b1-4)[Fuc(a1-6)]GlcNAc
# How it was run: as §1
# [8] = target: Gal(b1-3)GlcNAc(b1-2)Man(a1-3)[GlcNAc(b1-4)][Gal(b1-3)GlcNAc(b1-2)Man(a1-6)]Man(b1-4)GlcNAc(b1-4)GlcNAc
# How it was run: as §1
# [9] = target: Gal(b1-3)GlcNAc(b1-2)[Gal(b1-3)GlcNAc(b1-6)]Man(a1-6)[Gal(b1-3)GlcNAc(b1-2)Man(a1-3)]Man(b1-4)GlcNAc(b1-4)GlcNAc
# How it was run: as §1
# [10] = target: Gal(b1-3)GlcNAc(b1-3)Gal(b1-3)GlcNAc
# How it was run: as §1
# [11] = target: Gal(b1-3)GlcNAc(b1-3)Gal(b1-4)Glc
# How it was run: as §1
# [12] = target: Gal(b1-3)GlcNAc(b1-3)Gal(b1-4)GlcNAc
# How it was run: as §1
# [13] = target: Gal(b1-3)GlcNAc(b1-3)Gal(b1-4)GlcNAc(b1-2)Man(a1-3)[Gal(b1-3)GlcNAc(b1-3)Gal(b1-4)GlcNAc(b1-2)Man(a1-6)]Man(b1-4)GlcNAc(b1-4)GlcNAc
# How it was run: as §1
# [14] = target: Gal(b1-3)GlcNAc(b1-3)Gal(b1-4)GlcNAc(b1-2)[Gal(b1-3)GlcNAc(b1-3)Gal(b1-4)GlcNAc(b1-6)]Man(a1-6)[Gal(b1-3)GlcNAc(b1-3)Gal(b1-4)GlcNAc(b1-2)Man(a1-3)]Man(b1-4)GlcNAc(b1-4)[Fuc(a1-6)]GlcNAc
# How it was run: as §1
# [15] = target: Gal(b1-3)GlcNAc(b1-3)Gal(b1-4)GlcNAc(b1-3)Gal(b1-4)GlcNAc(b1-2)[Gal(b1-3)GlcNAc(b1-3)Gal(b1-4)GlcNAc(b1-3)Gal(b1-4)GlcNAc(b1-6)]Man(a1-6)[Gal(b1-3)GlcNAc(b1-3)Gal(b1-4)GlcNAc(b1-3)Gal(b1-4)GlcNAc(b1-2)Man(a1-3)]Man(b1-4)GlcNAc(b1-4)[Fuc(a1-6)]GlcNAc
# How it was run: as §1
# [16] = target: Gal(b1-3)GlcNAc(b1-3)Gal(b1-4)GlcNAc(b1-6)[Gal(b1-3)GlcNAc(b1-3)]Gal(b1-4)Glc
# How it was run: as §1
# [17] = target: Gal(b1-3)GlcNAc(b1-3)Gal(b1-4)[Fuc(a1-3)]GlcNAc
# How it was run: as §1
# [18] = target: Gal(b1-3)GlcNAc(b1-3)Gal(b1-4)[Fuc(a1-3)]GlcNAc(b1-6)[Gal(b1-3)GlcNAc(b1-3)]Gal(b1-4)Glc
# How it was run: as §1
# [19] = target: Gal(b1-3)GlcNAc(b1-3)GalNAc
# How it was run: as §1
# [20] = target: Gal(b1-3)GlcNAc(b1-6)Gal(b1-4)GlcNAc
# How it was run: as §1
# [21] = target: Gal(b1-3)GlcNAc(b1-6)GalNAc
# How it was run: as §1
# [22] = target: Gal(b1-3)GlcNAc(b1-6)[Gal(b1-3)]GalNAc
# How it was run: as §1
# Gal(b1-3)GlcNAc6S = target: Gal(b1-3)GlcNAc6S
# How it was run: as §1
# [23] = target: Gal(b1-3)[Fuc(a1-4)]GlcNAc
# How it was run: as §1
# [24] = target: Gal(b1-3)[Fuc(a1-4)]GlcNAc(b1-2)Man
# How it was run: as §1
# [25] = target: Gal(b1-3)[Fuc(a1-4)]GlcNAc(b1-2)Man(a1-3)[Gal(b1-3)[Fuc(a1-4)]GlcNAc(b1-2)Man(a1-6)]Man(b1-4)GlcNAc(b1-4)[Fuc(a1-6)]GlcNAc
# How it was run: as §1
# [26] = target: Gal(b1-3)[Fuc(a1-4)]GlcNAc(b1-3)Gal(b1-3)[Fuc(a1-4)]GlcNAc
# How it was run: as §1
# [27] = target: Gal(b1-3)[Fuc(a1-4)]GlcNAc(b1-3)Gal(b1-4)[Fuc(a1-3)]GlcNAc
# How it was run: as §1
# [28] = target: Gal(b1-3)[Fuc(a1-4)]GlcNAc(b1-6)GalNAc
# How it was run: as §1
# [29] = target: Gal(b1-3)[GlcNAc(b1-6)]GalNAc
# How it was run: as §1
# [30] = target: Gal(b1-3)[Neu5Ac(a2-6)]GalNAc
# How it was run: as §1
# [31] = target: Gal(b1-3)[Neu5Ac(a2-6)]GlcNAc(b1-4)Gal(b1-4)Glc
# How it was run: as §1
# [32] = target: Gal(b1-3)[Neu5Ac(b2-6)]GalNAc
# How it was run: as §1
# Gal(b1-4)Gal = target: Gal(b1-4)Gal
# How it was run: as §1
# [33] = target: Gal(b1-4)GalNAc(a1-3)[Fuc(a1-2)]Gal(b1-4)GlcNAc
# How it was run: as §1
binder,measurement,setting,value
B1,glycan array binding signal (z-score),Gal(b1-3)GalNAc(b1-3)Gal,3.67
same,glycan array binding signal (z-score),[1],1.22
same,glycan array binding signal (z-score),[2],4.67
same,glycan array binding signal (z-score),[3],2.83
same,glycan array binding signal (z-score),Gal(b1-3)GlcNAc,0.268
same,glycan array binding signal (z-score),[4],-0.328
same,glycan array binding signal (z-score),[5],-0.131
same,glycan array binding signal (z-score),Gal(b1-3)GlcNAc(b1-2)Man,0.303
same,glycan array binding signal (z-score),[6],0.302
same,glycan array binding signal (z-score),[7],0.352
same,glycan array binding signal (z-score),[8],0.07
same,glycan array binding signal (z-score),[9],0.267
same,glycan array binding signal (z-score),[10],-0.22
same,glycan array binding signal (z-score),[11],-0.286
same,glycan array binding signal (z-score),[12],-0.219
same,glycan array binding signal (z-score),[13],-0.208
same,glycan array binding signal (z-score),[14],-0.147
same,glycan array binding signal (z-score),[15],-0.065
same,glycan array binding signal (z-score),[16],0.152
same,glycan array binding signal (z-score),[17],-0.211
same,glycan array binding signal (z-score),[18],-0.041
same,glycan array binding signal (z-score),[19],0.385
same,glycan array binding signal (z-score),[20],1.76
same,glycan array binding signal (z-score),[21],-0.179
same,glycan array binding signal (z-score),[22],0.836
same,glycan array binding signal (z-score),Gal(b1-3)GlcNAc6S,0.738
same,glycan array binding signal (z-score),[23],-0.177
same,glycan array binding signal (z-score),[24],-0.159
same,glycan array binding signal (z-score),[25],-0.26
same,glycan array binding signal (z-score),[26],-0.34
same,glycan array binding signal (z-score),[27],-0.348
same,glycan array binding signal (z-score),[28],-0.277
same,glycan array binding signal (z-score),[29],1.32
same,glycan array binding signal (z-score),[30],4.47
same,glycan array binding signal (z-score),[31],-0.166
same,glycan array binding signal (z-score),[32],2.26
same,glycan array binding signal (z-score),Gal(b1-4)Gal,-0.293
same,glycan array binding signal (z-score),[33],-0.071
